This is one part of the list. These are enrichments in a pooled selection; single values are uncertain.
These substances were tested on SARS-CoV-2 3CLpro (nsp5) (assay: substrate phage enrichment score (protease-eluted vs HEPES control, +1 offset) (ratio); higher = better cleaved substrate). Settings: selection round: 3; protease elution time: 0.5 h.
Protocol: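 Random heptapeptide substrate phage display (M13 pIII fusion, heptapeptide between an N-terminal biotinylated AviTag GLNDIFEAQKIEWHE and pIII; phages immobilised on streptavidin) eluted by cleavage with 50 nM protease in 20 mM HEPES at 37 °C. Selected phages were NGS sequenced, and the enrichment score is (reads in protease sample + 1)/(reads in HEPES blank-selection control + 1).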

Substance	substrate phage enrichment score
STMQIPR	2.54
YQGGSAA	1.15
SRQEMRA	1
EERALPE	0.923
QCHFSPK	7.33
VQGGSAA	0.737
TEPAIGV	> 29
RPKLVTG	0.812
PEEQNTS	30.5
TATPSLQ	> 51
KSPVLHP	> 26
IPGAWTS	5.5
HPAPSHR	16.5
VRCIPRP	> 25
TCTEMPR	0.765
WSAAAHH	0.778
CFKQIQY	> 29
PCDHHHH	6.2
WENSYGR	0.115
PTRSCHA	7
TQLSPGQ	> 32
RGAAHHH	0.802
SSFTIMQ	> 63

Substance	substrate phage enrichment score
VNDSRDG	> 30
SPFDCNR	> 25
CKDDKLG	> 21
SSGVPVL	12.5
KPAAHHH	1.06
DLSFSDC	> 24
WPCYRTS	> 35
VSRYDNV	3.83
LTDKAHR	> 28
THPDGER	2.08
KGADTAE	2.5
KPGARCG	128
ATTTLPT	> 27
FRHRSDA	1.08
SGGHMGC	> 21
PGDTTAA	> 23
CAAAQQQ	0.818
IQKPCAY	4.6
TCAGQPD	2.83
VRPHIII	1.18
VSCPMKH	0.909
HPRCYIP	> 24
VPAHPRT	11.6

Substance	substrate phage enrichment score
QVRGTIR	0.889
QQYGSEC	> 29
LTTSPAS	6.6
ARNCVLQ	13
HTLLQSQ	> 23
SLSAPST	0.8
AEFKQPV	> 26
SQRVGNS	1.18
PNFQGGS	3.17
LTGTGYS	> 24
EQAKHRI	11.5
RAIGGVA	> 25
SGRANLT	11.5
ANRWTSR	7.25
QYNADRP	12
EAPYKPH	7.67
MRCTLPA	> 26
HEKCYLQ	> 64
RVQTLRK	> 26
EPRSTRG	> 74
PRPTTQK	11.5
SPAAHHH	1.05
STLTQDW	17.5

Substance	substrate phage enrichment score
HVAAHHH	1.07
CSTQRPK	6.33
KDLPNLQ	54
LRPHIII	1.42
SREKSQG	> 55
SKPLKGC	2.75
GHYHLPC	> 21
CDASVSA	> 25
QATRLQS	> 40
DHRPKVT	> 42
VTRCVLQ	11.5
SAPAHHH	0.692
TTEQGMS	> 46
LENKVEQ	> 26
KDMRDSS	> 28
TDRANDA	1.88
ESQAVLQ	30.4
SQIGSPQ	2.83
TNKCYTP	> 22
SGGYGNN	> 62
TADAEIY	22
TRRPAQQ	11.3
LTGVDCA	> 59

Substance	substrate phage enrichment score
EPYFQGG	2
LRTSGCQ	10.5
PHIHLRD	> 32
VNLTTPK	0.353
GPTTELM	7
RSAPTTT	8
SVRLQSG	> 74
RPSSSME	4
TNVPFLM	> 25
SNARGDR	1.6
MPRCTQS	3.6
QQSLICR	> 37
KSSPPAH	> 108
PTAAHHH	0.804
CRRSIRD	1.15
TKCPTRS	3.6
WTAAHHH	0.955
MKNPAHN	7.75
NLTTKLH	> 22
KSCPLAA	12
RTVPLNR	6.17
SRHSLET	> 52
KNRTMLQ	> 51

Substance	substrate phage enrichment score
ATRCVSK	8.67
QTPGPGL	1.09
HEQYFQG	16
HSWLNAC	1.9
VWPRGPQ	> 42
EIGCRLM	> 27
RPGVDFR	5.6
DYHGGNP	1.67
PSQNRTT	> 24
NTRPKLQ	> 29
SAAANHH	1.53
SATTRLQ	> 25
ESGGRIM	> 21
FNSGPQR	> 29
MPSRYSP	24.5
CAAAHHQ	0.803
ACEATFQ	> 28
SGSSWES	> 39
SRPAQLQ	8.33
TCIPIIQ	8.25
KETQETE	9
RSVPQAE	> 63
EHGKLRS	> 25

Substance	substrate phage enrichment score
NAHPTLQ	> 59
SSARRPG	4.54
VNSAGQR	4.91
GTAAAHH	0.91
GRSSSDM	3
ESGARLG	97
SERTLKC	1.68
SNGTRTV	0.294
RVTLHGR	> 33
RHLVSKP	10
KRGNAAA	3
KCSHPSR	> 29
PPKAQSG	2.71
VPQNAGT	3.83
PLVGTHT	> 25
AQSDEIP	5
QAAAHHH	1.22
SRAAHHH	0.786
PYVSPGP	> 23
VNGNDLQ	1.75
RTEPAAH	> 34
FISPSKQ	10
TDRSHSR	> 26

Substance	substrate phage enrichment score
TGCKQEK	> 30
HGTSALQ	> 23
RHHHHGA	0.438
ACMTVPG	> 21
HFQGGSA	2.25
NSAAAHH	0.887
SVPTAHH	> 25
GVSQPHH	2.3
NWAAHHH	0.929
RYQELNP	> 35
CSTLLQS	> 138
VRPHNII	2.03
NRNAGIE	> 39
QTGWCSD	1.35
VSCSSCN	> 38
NSHLPMK	1.44
LKDRNLT	3.83
YSAAHHH	0.61
RPGHVQI	> 22
TSSRENR	> 34
PGLGSMA	> 43
TKPGESP	1.75

— the supplement of paper PMC10185492
